Laboratory results taken from PMC11272940, “UNC-45 assisted myosin folding depends on a conserved FX3HY motif implicated in Freeman Sheldon Syndrome” (Nature Communications, 2024).
Substitutions are numbered along the chain they refer to. Names and notes keep the numbering of the source. These are yes or no findings as the source states them, for the method shown. Some binding calls cover weakened binding; strength is not graded here.

Experiments:
[1] = target: T1, Full length C. elegans UNC-45 (from E. coli) (C. elegans), G5EG62; test: cross-linking; XL-MS of the in vitro reconstituted UFD-2:UNC-45:myo^UF complex; 0.25 mM DSS, 20 mM HEPES pH 8.0, 150 mM NaCl, 25 °C, 30 min; both purified; details: remark: other sources report otherwise
T1 chain: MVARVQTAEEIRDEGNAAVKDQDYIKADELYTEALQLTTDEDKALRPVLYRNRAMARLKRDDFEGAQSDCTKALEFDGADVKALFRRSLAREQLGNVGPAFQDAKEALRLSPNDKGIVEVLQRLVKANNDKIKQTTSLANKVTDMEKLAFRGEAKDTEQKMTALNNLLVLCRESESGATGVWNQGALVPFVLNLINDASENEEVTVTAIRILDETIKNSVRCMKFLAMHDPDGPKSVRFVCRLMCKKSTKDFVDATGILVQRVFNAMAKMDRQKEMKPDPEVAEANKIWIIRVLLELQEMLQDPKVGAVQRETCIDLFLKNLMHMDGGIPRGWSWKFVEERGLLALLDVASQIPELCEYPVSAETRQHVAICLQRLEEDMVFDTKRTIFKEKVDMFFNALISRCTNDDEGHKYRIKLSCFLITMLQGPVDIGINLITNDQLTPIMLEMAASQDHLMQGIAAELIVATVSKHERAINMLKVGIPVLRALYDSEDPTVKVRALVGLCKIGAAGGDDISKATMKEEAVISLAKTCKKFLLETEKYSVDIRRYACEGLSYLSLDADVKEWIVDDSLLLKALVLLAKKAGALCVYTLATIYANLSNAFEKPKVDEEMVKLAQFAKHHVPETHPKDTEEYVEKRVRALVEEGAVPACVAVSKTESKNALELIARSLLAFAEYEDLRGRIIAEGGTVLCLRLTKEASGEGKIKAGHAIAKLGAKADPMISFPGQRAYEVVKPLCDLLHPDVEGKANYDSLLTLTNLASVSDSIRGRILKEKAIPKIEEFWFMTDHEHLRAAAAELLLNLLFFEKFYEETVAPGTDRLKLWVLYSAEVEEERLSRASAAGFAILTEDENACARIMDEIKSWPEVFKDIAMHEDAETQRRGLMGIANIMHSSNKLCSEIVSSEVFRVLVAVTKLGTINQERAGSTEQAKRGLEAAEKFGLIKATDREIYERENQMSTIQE

[2] = target: T2, fluorescein-labelled C. elegans myosin peptide Y582F (C. elegans); test: fluorescence polarisation; 2 μM N-terminally fluorescein-labelled peptide; UNC-45 from 180 μM (UNC-45B from 170 μM) diluted 1:1; 25 mM Tris pH 8.0, 150 mM NaCl; both purified
T2 sequence (peptide, fluorescein on the N-terminus): AHFAMRHFAG

[3] = target: T3, 547–588 myosin peptide (MHC-B) (C. elegans, UniProt P02566 547-588); test: as above
T3 construct: also called native peptide; identified myosin ligand; source: synthetic peptide
T3 peptide (looked up): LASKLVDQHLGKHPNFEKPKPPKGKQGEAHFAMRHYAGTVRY

[4] = target: T4, fluorescein-labelled wildtype C. elegans myosin peptide … (C. elegans); test: as above
T4 sequence (peptide, fluorescein on the N-terminus): AHFAMRHYAG

[5] = target: T5, fluorescein-labelled wildtype human MYH3 peptide … (human); test: as above
T5 sequence (peptide, fluorescein on the N-terminus): AHFSLIHYAG

[6] = target: T6, C. elegans myosin motor domain MHC-B (1-790), wildtype (C. elegans) (UniProt P02566); test: tandem affinity co-purification + SEC; co-expressed in insect cells; HisTrap (myosin) then Strep-Tactin (UNC-45), then Superdex 200 in 20 mM HEPES pH 8.0, 150 mM NaCl
T6 sequence: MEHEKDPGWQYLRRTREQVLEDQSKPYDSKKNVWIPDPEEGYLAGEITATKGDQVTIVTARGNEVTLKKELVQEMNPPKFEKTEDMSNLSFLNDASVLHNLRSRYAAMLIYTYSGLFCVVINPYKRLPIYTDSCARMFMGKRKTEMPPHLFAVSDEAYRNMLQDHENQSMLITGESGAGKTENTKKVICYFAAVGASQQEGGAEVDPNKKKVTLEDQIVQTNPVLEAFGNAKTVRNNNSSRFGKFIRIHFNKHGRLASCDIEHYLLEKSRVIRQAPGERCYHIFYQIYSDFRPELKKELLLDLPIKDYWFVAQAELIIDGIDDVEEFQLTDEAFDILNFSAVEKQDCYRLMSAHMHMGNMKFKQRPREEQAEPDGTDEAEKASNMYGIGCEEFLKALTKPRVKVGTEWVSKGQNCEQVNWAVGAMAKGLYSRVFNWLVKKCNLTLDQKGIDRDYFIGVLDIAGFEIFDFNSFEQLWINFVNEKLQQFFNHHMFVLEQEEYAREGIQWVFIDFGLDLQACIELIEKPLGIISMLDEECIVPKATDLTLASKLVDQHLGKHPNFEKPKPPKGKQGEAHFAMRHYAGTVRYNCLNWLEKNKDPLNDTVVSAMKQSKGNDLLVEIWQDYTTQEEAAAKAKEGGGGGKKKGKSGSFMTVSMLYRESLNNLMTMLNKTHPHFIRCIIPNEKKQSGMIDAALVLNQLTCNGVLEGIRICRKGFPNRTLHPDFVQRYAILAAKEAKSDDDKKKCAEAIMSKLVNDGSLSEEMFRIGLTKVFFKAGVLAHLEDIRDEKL

B1: UFD-2 ubiquitin ligase (C. elegans), Q09349 1-984 (enzyme)
chain: MIEDEKAGLQPMDISDASVFFFQADVESKDFLTSLFDCEGKSDDRMLRYADAIIDVQNLNFDVSPQCLQSNIAEIITKFVLLSQDGSRRGLSRSFNFIDPDIIAGCREEDAIEFLLINFVRCHHELGKSGTSNCYKKTLESTRKAVFSVFVMIQRGYLESQLRSQHASLVFTKRLLEDTVSNVFLRTLVEYLASTDECDEDAITETFNPIFGILRSGIICQRFEDNKDEIVRQILRVMNLLLSIRLPSNGPRPLSNLLVNREDFLPTPSEKIQGREFGLMSFLGPFFSYGLESSARRPNHRVFVDCEEDARKYDGSVNTEQKLYFQRMDPIRTMLHQLMLPLASDQGSRNKTLRWIATIISTNDIRTRSHYDPSDVLCDHYMTNFLSVMYMFSEKIDLSKIIVDYPFLPSSLINISKETRLKMDESGAVAFASQFADRPDEYHFSTVCFFLTIAAQRLVIPPLMNQISEYSRHLKELKHKINALKEKLNTVSGFERAEVEKKLNYETEHWKLMSRHLLCVKTQAQDPALMASSMDFVDKQMKFILNLLCDNLDLLGDDSQLPTEVSQMFCALPEYFLEDALDFYIFAISNGMKLLMERNADWISRLTVLFTQYHYIKSPFLVSKLVRVLSSIQPPLWFNVVRLRMAQENLLMCMIKFYSDFEDNGDFYEKFNVRGNIQYMLEKMEEDMFYKGKFMDMARECGAEFIRFVNMVINDATWCIDESLSGLKSIHDVEKKMANKVEWDNTDQEIRNQDLGVYEEAKRKVKGWLGTAKSNLKLLLSITVNSPEPFRTPVLGERLAAMLNHNLSQLIGSKASELKVKDPRSYGWEPREFVSLLISIYLKLNMPAFVKYIAYDERTYSPEFFHNAIECMRKNSIVGFSQLESFEHLAEDVKKEYEAKAELEEEYDDVPEEFKDPIMDAIMVDPVKLPSGHVMDRAVIERHLLSTPNNPFNRAPLSHNELSPDSELKAKIQEWICQKRNSKK
[1]
  binding: binds

B2: Full length C. elegans UNC-45 (from E. coli) (natural protein, UniProt G5EG62 1-961, looked up)
chain: T1 chain
notes: UNC-45 chaperone, C. elegans; The C-terminal Strep tag is stated for the peptide spot assay; also called wildtype UNC-45; purified UNC-45; source: E. coli, purified (HisTrap or StrepTrap, SEC); not shown: Strep, C-terminal, kept
[2]
  binding: binds weakly
[3]
  binding: binds weakly
[4]
  binding: binds weakly

B3: Human UNC-45B (protein, UniProt Q8IWX7 1-931)
chain: MAEVEAVQLKEEGNRHFQLQDYKAATNSYSQALKLTKDKALLATLYRNRAACGLKTESYVQAASDASRAIDINSSDIKALYRRCQALEHLGKLDQAFKDVQRCATLEPRNQNFQEMLRRLNTSIQEKLRVQFSTDSRVQKMFEILLDENSEADKREKAANNLIVLGREEAGAEKIFQNNGVALLLQLLDTKKPELVLAAVRTLSGMCSGHQARATVILHAVRIDRICSLMAVENEEMSLAVCNLLQAIIDSLSGEDKREHRGKEEALVLDTKKDLKQITSHLLDMLVSKKVSGQGRDQALNLLNKNVPRKDLAIHDNSRTIYVVDNGLRKILKVVGQVPDLPSCLPLTDNTRMLASILINKLYDDLRCDPERDHFRKICEEYITGKFDPQDMDKNLNAIQTVSGILQGPFDLGNQLLGLKGVMEMMVALCGSERETDQLVAVEALIHASTKLSRATFIITNGVSLLKQIYKTTKNEKIKIRTLVGLCKLGSAGGTDYGLRQFAEGSTEKLAKQCRKWLCNMSIDTRTRRWAVEGLAYLTLDADVKDDFVQDVPALQAMFELAKAGTSDKTILYSVATTLVNCTNSYDVKEVIPELVQLAKFSKQHVPEEHPKDKKDFIDMRVKRLLKAGVISALACMVKADSAILTDQTKELLARVFLALCDNPKDRGTIVAQGGGKALIPLALEGTDVGKVKAAHALAKIAAVSNPDIAFPGERVYEVVRPLVRLLDTQRDGLQNYEALLGLTNLSGRSDKLRQKIFKERALPDIENYMFENHDQLRQAATECMCNMVLHKEVQERFLADGNDRLKLVVLLCGEDDDKVQNAAAGALAMLTAAHKKLCLKMTQVTTQWLEILQRLCLHDQLSVQHRGLVIAYNLLAADAELAKKLVESELLEILTVVGKQEPDEKKAEVVQTARECLIKCMDYGFIKPVS
[5]
  binding: binds weakly

B4: C. elegans UNC-45 K82E mutant (co-expressed with the MHC-B motor domain in insect cells) (protein, UniProt G5EG62 1-961)
chain: T1 chain with K82E
[6]
  binding: binds
